# Measured values taken from the supplement of paper PMC10441789.
# The other results are listed elsewhere or left out. Antibody binding of pooled human sera (four to six donors per pool; dilution not stated) to peptides of the Trypanosoma cruzi antigen TSSA on microarrays. Quantile-normalised fluorescence in arbitrary units, mean of duplicate arrays; higher = more binding. No active / inactive call. The uninfected pools are read here as the healthy donors of the same country. The strongest signals lie near the top of the scale (about 60,000).
# Experiments:
# Experiment in all cases: antibody binding signal (normalised fluorescence) (arbitrary fluorescence units); higher = stronger serum antibody binding to peptide
# [1] = system: pooled sera of chronic Chagas disease patients, Bolivia
# Experimental: (§1)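 Microarray of 15-residue peptides over residues 30-55 of Trypanosoma cruzi TSSAII, each with 1 to 10 substitutions at naturally variable positions, probed with one serum pool per country.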
# [2] = system: pooled sera of chronic Chagas disease patients, Brazil
# Experimental: as §1
# [3] = system: pooled sera of chronic Chagas disease patients, Colombia
# Experimental: as §1
# [4] = system: pooled sera of chronic Chagas disease patients, Mexico
# Experimental: as §1
# [5] = system: pooled sera of chronic Chagas disease patients, USA
# Experimental: as §1
# [6] = system: pooled sera of uninfected people, Argentina
# Experimental: as §1
# [7] = system: pooled sera of uninfected people, Bolivia
# Experimental: as §1
# [8] = system: pooled sera of uninfected people, Brazil
# Experimental: as §1
# [9] = system: pooled sera of uninfected people, Colombia
# Experimental: as §1
# [10] = system: pooled sera of uninfected people, Mexico
# Experimental: as §1
# [11] = system: pooled sera of uninfected people, USA
# Experimental: as §1
Sequence,antibody binding signal [1],antibody binding signal [2],antibody binding signal [3],antibody binding signal [4],antibody binding signal [5],antibody binding signal [6],antibody binding signal [7],antibody binding signal [8],antibody binding signal [9],antibody binding signal [10],antibody binding signal [11]
SGKEKKAATGETPSP,445,5500,1450,3900,11700,463,202,97.3,286,105,454
TSSTPPSGTDNKAAA,48400,50700,1440,9680,21200,3020,993,1680,480,274,1340
SGKEKKAAAGGAPSQ,243,2850,6260,7350,6500,152,82.5,114,115,88.1,94.9
TPPSGTENKPAAGEA,46000,50000,350,7560,29100,9980,1270,2380,552,453,660
GTDNKAAAGEAPSQS,20300,37600,225,303,12400,86.6,610,1360,68.3,121,105
KPATGETPSQPGASS,19800,44400,159,198,17700,273,1940,438,214,1410,238
STPPSGKENKPAAGG,6140,27800,516,13500,17300,4600,2250,261,751,406,905
EKKAAAGEAPSPPGA,222,6590,431,334,11200,165,968,115,115,208,1060
DNKTAAGEAPSPSGA,366,1080,252,185,6890,160,189,209,193,243,125
PPSGTDKKPATGGTP,4300,38200,4820,43000,3650,701,642,855,462,4070,366
KENKPAAGEAPSPSG,408,23800,286,470,15400,185,307,135,121,130,131
GTEKKAATGGAPSQP,343,5510,953,1410,1740,415,1460,121,732,174,144
GTDNKTAAGGTPSPP,239,20200,4350,330,1490,260,717,2900,364,1450,170
GKEKKTATGGTPSPS,276,317,2000,2150,2830,170,89.6,113,156,88.5,92.4
PPSGTENKAAAGETP,38700,45500,297,2670,11700,1600,522,212,308,262,543
TISTPPSGTEKKTAA,3520,30700,788,16100,3740,2020,335,284,142,104,293
GTENKPATGGAPSQP,19600,32200,611,2090,5590,503,2330,665,206,365,234
GTENKAATGGAPSPP,1660,4250,1700,2490,3460,327,377,165,266,189,133
GTDNKAATGGTPSQP,1260,29700,1000,533,183,355,647,2160,199,1030,77.9
TISTPPSGKDNKPAA,6970,23600,556,20800,13500,1840,1410,407,234,179,434
STPPSGTDNKPATGE,41200,46800,4100,8800,40800,1740,889,398,311,544,347
TPPSGKDKKTATGGT,326,683,549,38700,1150,171,188,279,193,75.4,115
TEKKTAAGEAPSPPG,464,664,680,623,8620,153,128,292,2060,278,192
TDNKTATGGTPSQSG,1050,864,752,513,649,445,330,552,171,560,160
KENKAATGETPSQSG,769,24600,223,227,12400,139,208,129,145,194,217
TDKKPAAGETPSQSG,325,10300,261,209,1980,85.2,353,157,734,177,99.2
KDNKAAAGGTPSPSG,219,214,1170,169,896,168,1320,416,201,82.8,109

Sequence,antibody binding signal [1],antibody binding signal [2],antibody binding signal [3],antibody binding signal [4],antibody binding signal [5],antibody binding signal [6],antibody binding signal [7],antibody binding signal [8],antibody binding signal [9],antibody binding signal [10],antibody binding signal [11]
SGKENKAATGGTPSQ,630,17800,6650,4540,18900,7580,1710,182,327,255,223
TEKKPATGGTPSPPG,839,509,3430,957,2000,314,496,1200,390,260,783
GTDNKPATGEAPSPP,48900,49200,1130,227,37900,896,761,459,146,304,116
GKDKKTATGETPSPP,606,1050,3270,3090,6370,192,118,104,118,80.1,213
GTDKKPAAGETPSQS,1480,11200,6880,565,1500,111,331,479,683,882,156
PSGKDKKPATGGAPS,580,2470,4690,4160,4140,253,472,86.9,99.8,77,110
GTEKKPATGEAPSQS,31700,50100,2250,1630,43400,978,1570,1680,460,352,684
PPSGKDKKTATGGTP,350,473,1210,27900,1920,204,286,115,202,105,99.4
TDNKPAAGEAPSQSG,17500,30500,367,196,16100,65.9,384,163,103,302,82.7
TENKTAAGEAPSQSG,16500,11500,149,202,8450,293,163,224,169,235,151
SGTDNKAATGGTPSQ,988,46100,983,622,212,282,636,1930,204,204,226
NKAATGGTPSQPGAS,596,10800,1040,281,457,864,885,656,530,886,1450
GTDNKPAAGEAPSQP,27800,44900,1100,226,17700,133,628,335,117,318,151
GTEKKPAAGEAPSQP,15200,42100,1100,1800,14800,117,1070,2360,82.4,464,950
GTENKTATGEAPSPS,35500,17200,605,751,21800,148,228,209,234,137,102
SGKDKKAAAGETPSP,374,1020,942,765,1880,146,123,98.2,265,85.6,175
GTDNKTAAGGAPSPP,308,22700,4750,587,717,278,582,1870,199,320,180
GKDNKTATGGAPSQP,460,1050,2920,2480,1680,359,128,134,189,139,129
TEKKAAAGGTPSQPG,217,401,8990,698,2770,309,137,1720,229,494,294
TPPSGTEKKAAAGGT,1390,23000,1690,12500,2720,949,350,2010,134,97.2,190
KENKAATGEAPSPPG,20500,36900,218,194,25900,179,224,167,135,89.8,144
TDNKPAAGGTPSPSG,243,1030,1390,196,200,105,574,1040,575,360,115
PPSGTDKKTATGEAP,20300,21000,3090,14500,18100,329,261,286,420,838,219
KDKKTATGEAPSQPG,3660,29000,151,435,13000,161,89.9,126,64,86.4,87.4
GKDNKTATGEAPSQS,13900,20200,5840,4080,21200,336,245,151,371,123,135
KKPATGEAPSQSGAS,38300,43600,181,248,31600,1010,724,162,172,534,454
KENKPATGGTPSQPG,258,12600,884,741,1970,468,328,647,201,376,148
